SMILES strings stand for the structures.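 Assay format: 96-well plates, 48-hour exposure. At the GI50, growth is halved. TGI is the concentration that stops growth completely.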 Bounds are passed on as bounds.

The test relates to NCI-H322M lung. Kind of test: NCI tumour cell line growth inhibition, 48 h.
For the compound `CCCCSc1nc(NCCc2c[nH]c3ccccc23)c(C#N)c(-c2ccccc2)n1`, the GI50 was 16.6 µM and the TGI stood at 38.3 µM.
On to `CCCCN1C(=O)/C(=C\C(=O)c2cc3ccccc3oc2=O)c2ccccc21`, for which the GI50 was above 100 µM and the TGI was above 100 µM.
As for `O=Cc1cncc(-c2ccc3ncnc(N4CCc5cc(F)c(Cl)cc54)c3c2)c1`, the GI50 was 2.11 µM and the TGI was determined as 9.79 µM.
Consider `CN(C)CCn1c2ccccc2c2nc3ccc([N+](=O)[O-])cc3nc21`, for which the GI50 was 2.25 µM and the TGI was 11.9 µM.
On to `Fc1ccccc1CNc1nc(SCCN2CCOCC2)nc2c1cnn2CC(Cl)c1ccc(Br)cc1` (stereo not given), for which the GI50 was above 100 µM and the TGI was above 100 µM.

The values above are taken from PubChem BioAssay (NCI).
